# Reference: the supplement of paper PMC4466236
# Over roughly 33,000 sequences, “E-score (dimensionless, -0.5 to 0.5)” has its median near -0.058; the highest 2% begin near 0.35. The list shows a part of the results.
# Test system: MvaT
# Test: PBM 8-mer E-score (mean of HK and ME arrays) (E-score (dimensionless, -0.5 to 0.5)); higher = stronger relative binding preference; most listed sequences are background and not binding sites
# Protocol: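 Protein binding microarray: GST-tagged full-length MvaT (P. aeruginosa PAO1) bound to two universal double-stranded 60-mer arrays (ME and HK), each with a constant 25-mer primer and a variable 35-mer region covering all 8-mers. The 8-mer E-score (rank-based, range -0.5 to 0.5, >0.45 = specific binding) is the mean of the two arrays.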
row,Sequence,PBM 8-mer E-score
1,CTTCTCCA,-0.0708
2,CATATCGG,0.0569
3,AGTTCCCA,-0.0505
4,ACAGGTGA,-0.0802
5,AGGGTCCG,-0.229
6,GCCCGCGA,-0.31
7,CAGGGGGC,-0.328
8,AGCGGTAG,-0.00435
9,CCGCGTTC,-0.22
10,GACGATGA,-0.129
11,GTCCTGGA,-0.103
12,AAAATCGG,0.0418
13,ACCTGTAT,0.145
14,CTGTACCC,-0.208
15,GGTAAAGA,0.0344
16,AATGAGTA,0.211
17,GCGGTGCA,-0.0493
18,ATAGCCAA,-0.0619
19,ATTAAATG,0.373
20,AATTTTAA,0.321
21,GGTTCGCA,-0.166
22,CTGGCTTA,0.0313
23,CGTCTGAA,0.102
24,ACGATTTG,0.0263
25,CTATTAGC,0.136

row,Sequence,PBM 8-mer E-score
1,AAATGCCC,0.0772
2,ACCTTCCG,-0.174
3,AACTGGGT,0.0603
4,CAGGAATA,0.209
5,GGTCCGTA,-0.118
6,ACACTCCC,-0.00882
7,CATTTTCA,0.108
8,GGAATAAA,0.289
9,CGGACCTA,-0.271
10,GGGTCCAA,-0.28
11,ATCATAAA,0.308
12,TAAGTACA,0.196
13,CCAAGTTA,0.196
14,TTCCGAAA,0.1
15,ATTTAATC,0.346
16,AATGGCCT,-0.18
17,GGATGGAA,-0.0929
18,ACATCCGG,-0.0494
19,GCTTGGGA,-0.194
20,CGGACGCC,-0.245
21,ATCAGCAG,-0.0789
22,ACAGCGTC,-0.26
23,AGGAGCCT,-0.293
24,CACTGGAG,-0.137
25,TCCGTGCA,-0.108

row,Sequence,PBM 8-mer E-score
1,GTGATGGA,-0.164
2,AGTACTGG,0.174
3,ACATCGTA,0.0214
4,ATTAAAGA,0.264
5,TCGTTCCA,-0.0799
6,ATGTTTGC,0.106
7,ACATACGA,0.101
8,CGTTCCAC,-0.0562
9,AGGCCTGG,-0.315
10,ACACAGCG,-0.0306
11,TAGTCCAA,0.191
12,CAAGCCAA,-0.129
13,GAGTAGCA,-0.169
14,CTTAATTA,0.454
15,CAGACTAC,-0.0173
16,CAACCTTA,0.0197
17,ATAGACTC,-0.0741
18,ATACAACG,0.181
19,ATCATTTC,0.0246
20,AACACCAA,0.0452
21,AGTACAAG,0.0783
22,AAAGGCAC,-0.169
23,CGCGTCGA,-0.182
24,ACAGCACG,-0.0895
25,ACCGAGCG,-0.188

row,Sequence,PBM 8-mer E-score
1,CTAAAACC,0.0507
2,CGGCCTAG,-0.27
3,ACGTACGT,-0.0402
4,ACTACTCA,0.0173
5,CGTCAAGC,-0.0222
6,GTCCGTGA,-0.136
7,CGGGGGCC,-0.335
8,CACTCTGC,-0.113
9,AGACTGAT,0.00842
10,GGTCGGTA,-0.249
11,GTGGACCA,-0.118
12,AATGTTCA,0.252
13,CAAGAAGG,-0.269
14,CTAACCAC,-0.0777
15,ACTGCTTC,-0.228
16,GATTGCCC,-0.151
17,CGTTTGTC,-0.0022
18,GATGCACC,-0.166
19,AGGACTAG,-0.106
20,AGTCCATC,-0.197
21,GTCGCTTA,0.0162
22,GTGCCCTA,-0.297
23,AATCCCAG,-0.071
24,CTAGCGAC,-0.259
25,TATCGGAA,0.189

row,Sequence,PBM 8-mer E-score
1,ACCTGGCT,-0.195
2,AACATGAC,0.0169
3,CGTCGCGA,-0.229
4,GCAGTATA,0.287
5,GAGTACGA,-0.082
6,GCCATGGA,-0.00887
7,TCGGCTCA,-0.245
8,CTATTTAA,0.274
9,ACTGCTCG,-0.127
10,TAGGAATA,0.197
11,ACATAGCA,-0.0283
12,AGTTAAGG,0.135
13,ATCGCGGG,-0.119
14,AGTCTGAG,-0.0908
15,CCAGTACG,-0.224
16,GCAGAAGA,-0.0597
17,AGACATAA,0.164
18,ATTTTATG,0.234
19,CTACGTGC,-0.135
20,CCGTATAG,-0.0465
21,GTCTTTAA,0.146
22,GGTTGTAA,0.141
23,CCGAATGC,-0.127
24,TCCTAGCA,-0.182
25,TTCAAGAA,-0.0313

row,Sequence,PBM 8-mer E-score
1,CGGGCCGA,-0.202
2,CTGCCAAG,-0.215
3,AGAAAAAG,0.0842
4,GAAGGCCC,-0.379
5,CCTTCCCG,-0.14
6,GCGGGGAA,-0.103
7,AGGGAAGC,-0.183
8,TCGAGAAA,0.0629
9,AGTCAGGA,-0.0418
10,CACTAAGA,0.0784
11,CGGGCCAA,-0.118
12,ATCCTGTC,-0.176
13,ATAGCTCA,-0.0497
14,AACATAGT,0.25
15,GCATAAAC,0.105
16,CTAAGTAC,0.0477
17,AAGAGGAC,-0.0662
18,CACATCAC,-0.0635
19,AGCTGATA,0.113
20,AAAAAGAC,0.105
21,TCAGACGA,-0.099
22,CACCTTTC,-0.0352
23,TCACCCGA,-0.148
24,AGAGCAAT,-0.0516
25,AAGAGCGG,-0.0342

row,Sequence,PBM 8-mer E-score
1,ATGGTCCC,-0.228
2,CGGTACTC,-0.119
3,GACATTGC,-0.0274
4,ATATTTAA,0.462
5,CTGGGTGA,-0.218
6,GCAACGCA,-0.168
7,ATCGTAAA,0.053
8,GGCGTGTA,-0.134
9,ACTTTTTA,0.309
10,AAGATAAC,0.156
11,TGCCCTAA,-0.201
12,CGGTGTCC,-0.201
13,ACGTAGCT,-0.0562
14,GCAGCGCC,-0.366
15,ACTGCTAT,0.0955
16,CACAGCAA,0.133
17,ACCGGTAT,0.117
18,CGACGTAA,-0.0197
19,GTCCCCGA,-0.174
20,CGACTCAA,-0.0083
21,ATCCTGAA,0.0306
22,AGACATCG,-0.159
23,CGATTACA,0.178
24,ATGCCAAA,-0.0996
25,CGGTAAAC,0.0615

row,Sequence,PBM 8-mer E-score
1,AAGGTGGA,-0.0298
2,AATGGCGC,0.0067
3,CGCTTTGA,-0.0139
4,AGGGGACC,-0.235
5,ATAATAAA,0.451
6,TACCATCA,-0.0879
7,GGGTAAGA,-0.00473
8,AACTCGCG,-0.0197
9,CTAATACC,0.167
10,GCCTACTA,-0.023
11,ATTAGTTG,0.321
12,ACTAGTCC,-0.0112
13,ACGCTTAA,0.22
14,ACACCAGC,-0.13
15,GCGCAAGC,-0.198
16,ACTCGGTC,-0.211
17,TAGACTCA,-0.0671
18,CCATCACA,-0.0555
19,CACGGATG,-0.225
20,AACTGATG,0.0546
21,GAACATTA,0.276
22,ATTGCCTG,0.0246
23,AGGGCCTG,-0.226
24,CGAGTCTA,-0.126
25,TCAAATCA,0.116

row,Sequence,PBM 8-mer E-score
1,CAAGGGGA,-0.126
2,AAAGGGTA,-0.0374
3,AAGCGCCC,-0.118
4,CTGCCCGA,-0.105
5,AAAAACCT,0.106
6,AGTATTAG,0.27
7,CGGTGACC,-0.323
8,AGCAACCA,0.0355
9,AAATCGGC,-0.0057
10,ACTCACCT,-0.104
11,GTTGCTCA,-0.0849
12,GAGTTTCC,-0.216
13,CGGGACAG,-0.151
14,AGCGCCAA,-0.026
15,GTTACCAA,0.0154
16,ACAGAGTC,-0.197
17,AAAGAGCA,0.000865
18,ACGCGCGA,-0.00121
19,AACTCATA,0.144
